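Following 48 hours of exposure in 96-well plates, responses at five concentrations were used to interpolate endpoints linearly. GI50 = concentration required for 50% inhibition of growth.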 The source made the active and inactive calls. Cut-off read from the data, not from the text of the source: active = GI50 up to about 1.1 µM and inactive = higher.
These compounds were tested on NCI-H322M (assay: growth of human tumour cells (NCI), 48 h).
For `O=C(O)c1cc(CCc2ccc(O)c(O)c2)ccc1O`, the GI50 was inactive: > 100 µM. With `CC(C)C(C/C=C1\CC(CO)(COC(=O)C(C)(C)C)OC1=O)C(C)C` (stereo not given) the GI50 was inactive: 11.7 µM. `CSc1ccc(NC(=O)Nc2cc(C)ccn2)cc1` was tested, and the GI50 was inactive: > 100 µM. With `Oc1ncc(Cl)c(O)n1` the GI50 was inactive: > 100 µM. `Nc1nc(CCl)nc(Nc2ccccc2)n1` was tested, and the GI50 was inactive: 30.1 µM. `COC(=O)c1onc(-c2c(OC)cc(OC)cc2OC)c1C(=O)OC` was tested, and the GI50 was inactive: > 100 µM. With `CCNC(=O)c1c(O)nc2ccccc2c1O` the GI50 was inactive: 94 µM. For `NCCc1c[nH]c2ccc(OC(=O)C(=O)O)cc12`, the GI50 was inactive: > 100 µM. With `O=P(O)(O)CN1CCNCCN(CP(=O)(O)O)CCNCC1` the GI50 was inactive: > 100 µM. In the case of `O=C(O)c1ccccc1-c1ccccc1C(=O)c1ccccc1`, the GI50 is reported as inactive: > 100 µM. In the case of `CC(C)(C)[Si](C)(C)OCc1cccc(OCCOc2cccc(CO[Si](C)(C)C(C)(C)C)c2[N+](=O)[O-])c1[N+](=O)[O-]`, the GI50 is reported as inactive: > 100 µM. In the case of `C/C=C/C(=O)[C@@H](O)C(C)C`, the GI50 is reported as inactive: > 100 µM. `CCOC(=O)/C(=N/Nc1ccccc1)N1C(=S)N(C)N=C(C)C=C1S` was tested, and the GI50 was inactive: > 100 µM. In the case of `COc1ccc(/C(Cl)=C(\C=O)c2ccc(F)cc2)cc1`, the GI50 is reported as inactive: 15.5 µM. For `CCn1c2ccccc2c2c(-c3ccccc3)cc3c(c21)C(=O)N(c1ccccc1)C3=O`, the GI50 was inactive: > 100 µM. For `NCCCc1ccc2oc3ccccc3c2c1`, the GI50 was inactive: 11.5 µM. In the case of `Oc1c2cc(Br)cc1CCc1cc(Br)cc(c1O)CC2`, the GI50 is reported as inactive: 19.2 µM. With `OC(CN1CCCCC1)c1ccc(/C=C/c2ccc(Cl)cc2)cc1` (stereo not given) the GI50 was inactive: > 100 µM. `O=S1(=O)c2ccccc2NC(=S)N1c1ccccc1` was tested, and the GI50 was inactive: > 8.75 µM. In the case of `Cc1ccc(S(=O)(=O)N2c3ccccc3[C@H]3CCc4c([nH]c5ccccc45)[C@H]32)cc1`, the GI50 is reported as inactive: > 100 µM. In the case of `COC(c1cccc(C(O)(C(F)(F)F)C(F)(F)F)c1)(C(F)(F)F)C(F)(F)F`, the GI50 is reported as inactive: 20.7 µM. With `N=C1OC(CN2CCN(c3ccccc3)CC2)CN1C(=S)Nc1ccccc1` (stereo not given) the GI50 was inactive: > 100 µM. With `Cc1nc2ccc(Br)cc2c(=O)n1-c1nnc(C(C)(C)C)s1` the GI50 was inactive: > 10 µM. `COc1ccc(OC)c2c1-c1nnnn1CCC2(C)C` was tested, and the GI50 was inactive: > 100 µM. For `CCC(=O)CC(=O)CCC(=O)Nc1cc(C)ccc1C`, the GI50 was inactive: > 100 µM. In the case of `NC(Cc1ccccc1)C(=O)OCN1C(=O)C2C3C=CC(C2C1=O)C1C2C(=O)N(COC(=O)C(N)Cc4ccccc4)C(=O)C2C31` (stereo not given), the GI50 is reported as inactive: 77.1 µM. In the case of `S=C1N(c2ccc(Cl)cc2)C2=C(/N=N/c3ccccc3)C(=Nc3ccccc3S2)N1c1ccccn1`, the GI50 is reported as inactive: 11.1 µM. In the case of `Cc1cc2oc(C)c(S(=O)(=O)NC(=O)Nc3ccc(Cl)cc3)c(=O)c2c(=O)o1`, the GI50 is reported as inactive: > 100 µM. In the case of `CC1(C)CC(=O)C(CC2C(=O)c3ccccc3C2=O)C(=O)C1`, the GI50 is reported as inactive: > 100 µM. For `Cc1ccc(Cc2c(=O)[nH]nc3ccccc23)cc1`, the GI50 was inactive: 71.1 µM. In the case of `CN(CCNC(=O)c1c[nH]c2c1Cc1ccccc1-2)CCNC(=O)c1c[nH]c2c1Cc1ccccc1-2`, the GI50 is reported as inactive: 47.2 µM. With `CC(C)(Cl)C(Br)CC/C(CBr)=C(/Cl)CCl.CC(C)(Cl)C(Br)CC/C(CBr)=C(\Cl)CCl` (stereo not given) the GI50 was inactive: 5.66 µM. For `COc1ccc2c(c1)C(=O)CC1c3cnccc3C(=O)N21` (stereo not given), the GI50 was inactive: > 100 µM. With `C/C=C\C(CC(=O)NCC(=O)c1c[nH]c2ccccc12)CC(=O)OC` (stereo not given) the GI50 was inactive: > 100 µM. With `O=C(CCCC(=O)Nc1ccc(Cl)cc1Cl)CC(=O)c1ccc2ccccc2c1` the GI50 was inactive: > 100 µM. `O=C1C(c2ccc(Br)cc2)=[N+]([O-])c2ccccc21` was tested, and the GI50 was inactive: 19.4 µM. In the case of `COc1cc2c(cc1O)CCN[C@@]21CS[C@H]2c3c(OC(C)=O)c(C)c4c(c3C(COC1=O)N1C2C2NC(Cc3cc(C)c(OC)c(O)c32)[C@@H]1C#N)OCO4` (stereo not given in full), the GI50 is reported as active: < 0.01 µM. In the case of `O=C1CSC2(CC(/C=C/c3ccccc3Br)=NN2c2cccc(S(=O)(=O)O)c2)N1c1nc2ccccc2s1` (stereo not given), the GI50 is reported as inactive: > 100 µM. `Cc1cnccc1/N=N/c1ccc(N(C)C)cc1` was tested, and the GI50 was inactive: 31.8 µM. With `O=C1OC2CC=CC1C2` (stereo not given) the GI50 was inactive: > 100 µM. With `Nc1ccc2[nH]c3c(-c4ccccc4)nccc3c2c1` the GI50 was inactive: > 75.7 µM. With `O/N=C1\CSc2ccccc2C1` the GI50 was inactive: > 100 µM. In the case of `O=C(/C=C/c1cc(F)ccc1F)OCCc1ccccc1`, the GI50 is reported as inactive: > 100 µM. For `CNCCCNC(=S)Cn1cc(C)c(=O)[nH]c1=O`, the GI50 was inactive: > 54.3 µM. With `CCN(CC)C(=O)c1c(N2CCOCC2)cc(N(CC)CC)oc1=O` the GI50 was inactive: > 100 µM. `O=c1[nH]nc(-c2ccccc2)n1/N=C/c1ccc([N+](=O)[O-])o1` was tested, and the GI50 was inactive: 7.35 µM. `O=C(O)CCC(=O)OC1N=C(c2ccccc2Cl)c2cc([N+](=O)[O-])ccc2NC1=O` (stereo not given) was tested, and the GI50 was inactive: > 100 µM. With `C[C@@]1(O)C2C3CC4C5C3C1[C@](O)(C42)[C@H]5Br` (stereo not given in full) the GI50 was inactive: > 100 µM. `CCOC(=O)C1=C(Nc2ccc(Cl)c(Cl)c2)OC/C1=N\NC(=O)Cc1ccccc1` was tested, and the GI50 was inactive: > 100 µM. `Cc1ccc(NC(=O)C2C(=O)C(=O)N(c3ccc(C)cc3)C2=O)cc1` (stereo not given) was tested, and the GI50 was inactive: > 100 µM. With `O=c1cc(NNc2ccccc2)[nH]c(=O)[nH]1` the GI50 was inactive: 23.6 µM. In the case of `COc1cc(CC2c3cc(OC)c(OC)cc3CCN2C)c(C(=O)O)cc1OC` (stereo not given), the GI50 is reported as inactive: > 100 µM. In the case of `c1ccc2c(c1)c(N1CCCCC1)cc1nc3c(cc(N4CCCCC4)c4ccccc43)nc12`, the GI50 is reported as inactive: > 100 µM. `COCC(=O)OC1CCn2c1nc1c2C(=O)C(C)=C(NC(C)=O)C1=N` (stereo not given) was tested, and the GI50 was inactive: 15.9 µM. With `Cc1ccc(Nc2nc3c(=O)n(C)c(=O)n(C)c3nc2Nc2ccc(C)cc2)cc1` the GI50 was inactive: 20.2 µM. `O=C1N(c2ccccc2)N=C2c3ccncc3C3=NN(c4ccccc4)C(=O)C123` (stereo not given) was tested, and the GI50 was inactive: > 100 µM. In the case of `C=C(C)C[C@H](Sc1nc2ccccc2s1)[C@H](C)O`, the GI50 is reported as inactive: 57.8 µM. With `O=C(NNC(=O)c1ccccc1O)c1ccc(O)cc1` the GI50 was inactive: 43.6 µM. For `c1ccc(-n2cnnc2-c2nsc3ccccc23)cc1`, the GI50 was inactive: > 100 µM. For `CCOC(=O)C1C=C1C(C)(C)O` (stereo not given), the GI50 was inactive: > 10 µM. `NC(=O)c1ncn2c(=O)n(CCl)nnc12` was tested, and the GI50 was inactive: > 100 µM. For `CC1(c2nc3ccccc3[nH]2)CCC(C#N)C(C)(C)O1` (stereo not given), the GI50 was inactive: > 100 µM. For `CCCC[N+](CCCC)(CCCC)CCCC.O=S(=O)([O-])ON=C1c2ccccc2-c2ccccc21`, the GI50 was inactive: > 100 µM. For `O=[N+]([O-])c1ccc(C2=NN(c3ccccc3)C[N+](c3ccc(Br)cc3)=N2)cc1`, the GI50 was inactive: > 100 µM. For `O=C(CC(C(=O)c1cccs1)c1ccccc1)c1ccccc1O` (stereo not given), the GI50 was inactive: 9.77 µM. In the case of `CC1(C(=O)Nc2ccc3ccccc3c2)CC2(C)CC(C)(C1)C(O)NC2=O` (stereo not given), the GI50 is reported as inactive: > 100 µM. `CCOC(=O)/C(C#N)=C/c1ccc2c(-c3c(OCC)ccc4cc(/C=C(\C#N)C(=O)OCC)ccc34)c(OCC)ccc2c1` was tested, and the GI50 was inactive: > 100 µM. For `O=C(O)C1=CCCc2ccc3ccccc3c21`, the GI50 was inactive: > 100 µM. With `CC(O)C(NC(=O)C(CS)NC(=O)C(CO)NC(=O)C(CCCCN)NC(=O)C(Cc1c[nH]c2ccccc12)NC(=O)C(Cc1ccc(O)cc1)NC(=O)C(CS)NC(=O)C(N)Cc1ccccc1)C(N)=O` (stereo not given) the GI50 was inactive: > 25 µM. In the case of `COc1ccc(/C(CCl)=C(\Nc2ccccc2)c2ccc(OC)c(OC)c2)cc1OC`, the GI50 is reported as inactive: > 100 µM. For `CC(=O)OC(CCC1(C)OC1COc1ccc(CCNC(=O)C=C(C)C)cc1)C(C)(C)OC(C)=O` (stereo not given), the GI50 was inactive: > 100 µM. In the case of `CSC1=N/C(=C\c2ccco2)C(=O)N1CN1CCCCC1`, the GI50 is reported as inactive: > 100 µM. `COCO[C@@H]1C[C@H]2C(=O)N(COC)c3ccccc3C(=O)N2C1` was tested, and the GI50 was inactive: > 100 µM. In the case of `CC1=C(Cl)C=CP(=O)(OC(C)C)C1` (stereo not given), the GI50 is reported as inactive: > 100 µM. With `O=c1ccc(=O)c2c(=O)c3ccccc3c(=O)c1=2` the GI50 was inactive: 85.9 µM. With `O=C(c1ccccc1)n1cc(/C=C/[N+](=O)[O-])c2ccccc21` the GI50 was inactive: 63.8 µM. For `O=C1c2ccccc2-c2nc(/C=C/c3ccccc3)cc3c2c1nc1ccccc13`, the GI50 was inactive: 31.8 µM. In the case of `Cn1c(=O)c2c(nc3sc4nc5ccccc5nc4n32)n(C)c1=O`, the GI50 is reported as inactive: > 100 µM. With `CC(=O)O[C@@H]1C[C@@]2(C)[C@@H]3CC=C4[C@@H](C[C@H](O)C(=O)C4(C)C)[C@]3(C)C(=O)C[C@]2(C)[C@H]1[C@@](C)(O)C(=O)/C=C/C(C)(C)OC(C)=O` the GI50 was inactive: 10.6 µM. In the case of `CSc1cc(Cl)c(C)cc1S(=O)(=O)NC(=O)NNc1ccc(F)cc1`, the GI50 is reported as inactive: > 100 µM. For `O=[N+]([O-])C(/C(Cl)=C(\Cl)Br)=C(/Cl)SCc1ccccc1`, the GI50 was inactive: 16 µM. In the case of `O=C(Nc1cccc(O)c1)C(=O)C1C(=O)NC(=S)NC1=O`, the GI50 is reported as inactive: > 100 µM. For `CC1(C)C=C(/C=N/Nc2ccccc2)C(C#N)=C(O)C1(C#N)C#N`, the GI50 was inactive: > 100 µM. In the case of `O=C(O)C12CCCCC1CCCC2` (stereo not given), the GI50 is reported as inactive: > 100 µM. In the case of `CC(=O)Nc1ccc2c3c(cc(O)c2c1)N(C(=O)CCCCC(=O)Nc1ccc2c4c(cc(O)c2c1)N(C(=O)OC(C)(C)C)CC4CCl)CC3CCl` (stereo not given), the GI50 is reported as inactive: 4.98 µM. `CC(=O)/C=C/C1=C(C)CCCC1(C)CC(C)C` (stereo not given) was tested, and the GI50 was inactive: > 100 µM. With `COc1cc2c(cc1OC)C(N(C)C)C(c1ccccc1)=C2Cl` (stereo not given) the GI50 was inactive: 26.1 µM. `FC(F)(F)C1(C(F)(F)F)OC(Cl)(Cl)C(Cl)(Cl)O1` was tested, and the GI50 was inactive: > 10 µM. For `Nc1ccccc1CCCC(=O)O`, the GI50 was inactive: > 100 µM. For `COC(=O)C1CCC2(C)[C@H](CCC3O[C@]32C)[C@@]1(C)CC(=O)c1ccoc1` (stereo not given in full), the GI50 was inactive: 91.2 µM. With `O=C(O)c1ccc(C2C(=O)N[C@@H]3CCC[C@H]23)cc1` (stereo not given in full) the GI50 was inactive: > 100 µM. `CCc1cc2c(cc1O)CC[C@@H]1[C@@H]2CC[C@]2(C)[C@@H](O)CC[C@@H]12` was tested, and the GI50 was inactive: 10.4 µM. In the case of `Cc1ccc(C2=[N+]([O-])c3ccccc3C2=O)cc1`, the GI50 is reported as inactive: > 84.9 µM. For `Cc1cc2cc3c(cc2c(-c2ccc(N)cc2)n1)OCO3`, the GI50 was inactive: 54.6 µM. For `COc1cc(CNc2ccc(C)cc2)cc(OC)c1OC`, the GI50 was active: 0.507 µM.

From ChEMBL document CHEMBL1201862, “PubChem BioAssay data set” (2004)
